This series deals with the molecule itself. In words: SEC; purified TPI diluted to 15 uM in mobile phase, 100 ul injected, elution monitored at 280 nm; peak areas integrated for the relative monomer and dimer populations; dimer to monomers.

B1: human triosephosphate isomerase, wild type (hTPI^WT) (enzyme)
chain: not shown
notes: Triosephosphate isomerase, human; also called TIM; source: purified as outlined previously [18]
Take B1: the “percent dimer (dimer:monomer ratio of peak areas)” value is approximately 80%.

(Values after article PMC4816394, “Structural and Genetic Studies Demonstrate Neurologic Dysfunction in Triosephosphate Isomerase Deficiency Is Associated with Impaired Synaptic Vesicle Dynamics” (PLoS Genetics, 2016).)
